In PubChem BioAssay AID504706 (National Center for Advancing Translational Sciences (NCATS), 2011):
Out of some 320,000 compounds screened, about 200 (0.062%) were called active. Inconclusive means that the source gave no clear call. Such entries were picked first, then a sample of the others. The call rests on the fitted dose curve; in most records, active means well fitted activation curve with a large enough effect; inconclusive means small, poorly fitted or top-dose-only effect; inactive means no such curve, though single readings can be large or run the other way. Potencies of inconclusive entries are left out as doubtful fits.

Assay: qHTS assay for re-activators of p53 using a Luc reporter; further: nearly all actives have a fitted effect of over 45% in size
Conditions: H1299 p53-A138V BP100-luciferase reporter, luminescence, 24 h; series mostly up to 92.2 µM
Method in brief: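 H1299 (p53-null), stable ts p53-A138V + BP100-Luc; 1000 cells/well, Opti-MEM/10% FBS; cpd 4 pt, 1:5; 24 h, 37 deg C, 5% CO2; detection reagent 10 min RT; luminescence.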
Potency means the concentration at half of the fitted maximal effect; tags describe the fitted curve by direction and shape.

**Q.** For `Cc1nc2ccc(C(=O)N3CCSCC3)cc2s1`, which Potency is on record?
**A.** The Potency was inconclusive [activator, single point].

**Q.** Which Potency does the source give for `O=C(NC(C(=O)c1ccccc1)n1c(=O)cc[nH]c1=S)c1ccccc1` (centres undefined) here?
**A.** Its Potency is inconclusive [activator, single point].

**Q.** For `Cc1ccc2c(c1)nnn2C1CCN(S(=O)(=O)c2ccc3ccccc3c2)CC1`, which Potency is on record?
**A.** The Potency was “inactive”.

**Q.** For `Cc1[nH]c2ccccc2c1SCc1nnc(SCc2ccccc2)n1C`, which Potency is on record?
**A.** The Potency was “inactive”.

**Q.** Which Potency does the source give for `CC(C)CNC(C(=O)Nc1ccc([N+](=O)[O-])cc1Br)c1ccccc1` (centres undefined) here?
**A.** Its Potency is inconclusive [activator, full curve, poor fit].

**Q.** With `O=S(=O)(c1ccc2ccccc2c1)N1CCN(S(=O)(=O)c2c(F)cccc2F)CC1` as the molecule, how does the Potency read?
**A.** The Potency was inconclusive [activator, partial curve, poor fit].

**Q.** Which Potency does the source give for `CC(C)(CCO)NC(=S)NC1CC2C=CC1C2` (centres undefined) here?
**A.** Its Potency is “inactive”.

**Q.** With `COC(=O)c1ccc(Sc2ccc(C)cc2)c(N)c1` as the molecule, how does the Potency read?
**A.** Its Potency is inconclusive [activator, single point].

**Q.** Which Potency does the source give for `CCN(CC)S(=O)(=O)c1ccc(Cl)c(C(=O)NCc2ccccc2Cl)c1` here?
**A.** Its Potency is inconclusive [activator, single point].

**Q.** With `CC1CCN(c2ccc3c(c2)S(=O)(=O)c2cccc(C(=O)NCc4cccc(F)c4)c2C3=O)CC1` as the molecule, how does the Potency read?
**A.** Its Potency is inconclusive [activator, single point].

**Q.** Which Potency does the source give for `CN(C)C(=O)c1cc(C(=O)c2ccc(Cl)cc2Cl)c[nH]1` here?
**A.** Its Potency is inconclusive [activator, partial curve, poor fit].

**Q.** Which Potency does the source give for `COC(=O)c1ccccc1N/C=C/C(=O)c1ccc(Br)cc1` here?
**A.** Its Potency is inconclusive [activator, full curve, poor fit].

**Q.** For `O=C(CNS(=O)(=O)c1ccccc1)OCc1cccc([N+](=O)[O-])c1`, which Potency is on record?
**A.** The Potency was inconclusive [activator, partial curve, poor fit].

**Q.** With `Cc1ccc(Nc2nc(CSc3nnc(-c4ccccc4C)n3C)cs2)cc1` as the molecule, how does the Potency read?
**A.** Its Potency is inconclusive [activator, full curve, poor fit].

**Q.** Which Potency does the source give for `Cc1ccc(NC(=O)c2ccco2)cc1C` here?
**A.** Its Potency is inconclusive [activator, partial curve, poor fit].

**Q.** For `O=C(/C=C/NCc1ccc(F)cc1)c1ccccc1`, which Potency is on record?
**A.** Its Potency is inconclusive [activator, partial curve, poor fit].

**Q.** For `O=C(OCC(=O)N1N=C(c2ccc(Cl)cc2)CC1c1ccco1)c1cncc(Br)c1` (centres undefined), which Potency is on record?
**A.** The Potency was “inactive”.

**Q.** With `Cc1cccc(Cn2ccc(N)n2)c1` as the molecule, how does the Potency read?
**A.** Its Potency is “inactive”.

**Q.** For `O=[N+]([O-])c1ccccc1/C=C/c1ccc2ccccc2n1`, which Potency is on record?
**A.** The Potency was inconclusive [activator, full curve, poor fit].

**Q.** For `COc1ccc(-n2c(SCC(=O)Nc3cc(C)on3)nc3c(c2=O)SCC3)cc1`, which Potency is on record?
**A.** Its Potency is “inactive”.

**Q.** With `COc1cc(OC)cc(C(=O)NC(C)CNc2ccc(Cl)cc2[N+](=O)[O-])c1` (centres undefined) as the molecule, how does the Potency read?
**A.** The Potency was “inactive”.

**Q.** With `CS(=O)(=O)c1cccc(-c2nnc(NC(=O)C3=COCCO3)o2)c1` as the molecule, how does the Potency read?
**A.** Its Potency is “inactive”.

**Q.** With `COc1ccc(-c2nc(CSCC(=O)NC3CCCc4ccccc43)c(C)o2)cc1OC` (centres undefined) as the molecule, how does the Potency read?
**A.** The Potency was “inactive”.

**Q.** For `O=C(Nc1cccc([N+](=O)[O-])c1)Nc1cccs1`, which Potency is on record?
**A.** Its Potency is “inactive”.

**Q.** With `CC(CCn1cccn1)NC(=O)c1cc(COc2ccc(F)cc2Cl)on1` (centres undefined) as the molecule, how does the Potency read?
**A.** Its Potency is “inactive”.

**Q.** With `Brc1ccc(-c2ccccc2)cc1` as the molecule, how does the Potency read?
**A.** Its Potency is “inactive”.

**Q.** With `c1ccc(-c2nnc(-c3ccccc3)nn2)cc1` as the molecule, how does the Potency read?
**A.** The Potency was inconclusive [activator, partial curve, poor fit].

**Q.** For `Nc1ccc2c(c1)C/C(=C/c1ccco1)C2=O`, which Potency is on record?
**A.** The Potency was inconclusive [activator, partial curve, poor fit].

**Q.** For `O=C(c1cccc(S(=O)(=O)NCc2ccccc2)c1)N1CCN(c2ccccc2)CC1`, which Potency is on record?
**A.** The Potency was “inactive”.

**Q.** For `CC(C)c1ccc(C2NC(=S)NC3=C2C(=O)CC(C)(C)C3)cc1` (centres undefined), which Potency is on record?
**A.** Its Potency is “inactive”.

**Q.** With `Cc1ccccc1C(=O)Nc1c2c(nc3ccccc13)CCCC2` as the molecule, how does the Potency read?
**A.** Its Potency is inconclusive [activator, single point].

**Q.** For `CN1CCc2c(sc(NC(=O)c3ccc(S(=O)(=O)N4CCCCCC4)cc3)c2C(N)=O)C1`, which Potency is on record?
**A.** Its Potency is inconclusive [activator, partial curve, poor fit].

**Q.** For `Cc1noc(C)c1COc1ccc(C(=O)OCC(=O)Nc2ccc3c(c2)OCO3)cc1`, which Potency is on record?
**A.** The Potency was inconclusive [activator, single point].

**Q.** Which Potency does the source give for `Cc1ccc(C(=O)N/C(=C\c2ccccc2)C(=O)OCc2ccccc2)cc1` here?
**A.** Its Potency is inconclusive [activator, full curve, poor fit].

**Q.** With `O=C1c2cccc3c([N+](=O)[O-])ccc(c23)C(=O)N1O` as the molecule, how does the Potency read?
**A.** The Potency was inconclusive [activator, single point].

**Q.** For `N/C(=N\OC(=O)Cc1cccs1)c1ccc([N+](=O)[O-])cc1`, which Potency is on record?
**A.** Its Potency is inconclusive [activator, full curve].

**Q.** Which Potency does the source give for `O=C(Nc1ccccn1)c1sc2cccc(F)c2c1Cl` here?
**A.** Its Potency is inconclusive [activator, partial curve, poor fit].

**Q.** For `Cc1cccc(NC(=O)COc2ccc(Br)cc2/C=N/O)c1`, which Potency is on record?
**A.** The Potency was inconclusive [activator, partial curve, poor fit].

**Q.** With `CCOC(=O)c1oc2cccc(OC(C)=O)c2c1C` as the molecule, how does the Potency read?
**A.** Its Potency is inconclusive [activator, partial curve, poor fit].

**Q.** With `CC1CCN(C(=O)CN2C(=O)NC3(CCCCCC3)C2=O)CC1` as the molecule, how does the Potency read?
**A.** Its Potency is inconclusive [activator, partial curve, poor fit].

**Q.** With `COc1ccc(S(=O)(=O)N/N=C(/C)c2ccncc2)cc1` as the molecule, how does the Potency read?
**A.** The Potency was inconclusive [activator, single point].

**Q.** For `COc1cccc(-c2cc(=O)c3cc(NC(C)=O)ccc3[nH]2)c1`, which Potency is on record?
**A.** The Potency was inconclusive [activator, partial curve, poor fit].

**Q.** Which Potency does the source give for `Cc1cc2cc(CNC(=S)NC3CCCCC3)ccc2n1C` here?
**A.** The Potency was “inactive”.

**Q.** Which Potency does the source give for `COc1cccc(/C=N/Nc2ccccc2C(=O)O)c1O` here?
**A.** The Potency was inconclusive [activator, partial curve, poor fit].

**Q.** For `CC(=O)Nc1c(-c2ccc3ccccc3c2)nc2ccccn12`, which Potency is on record?
**A.** Its Potency is inconclusive [activator, full curve, poor fit].

**Q.** With `Cc1ccc(OCCNC(=O)c2ccc3c(c2)OCO3)cc1` as the molecule, how does the Potency read?
**A.** Its Potency is inconclusive [activator, single point].

**Q.** With `O=c1oc2ccccc2cc1C1=Nn2c(nnc2-c2cccnc2)SC1` as the molecule, how does the Potency read?
**A.** Its Potency is inconclusive [activator, partial curve, poor fit].

**Q.** For `O=C1c2ccsc2SCCN1Cc1cccc(F)c1`, which Potency is on record?
**A.** Its Potency is “inactive”.

**Q.** With `Cc1ccc(OC(=O)COc2ccccc2C)c(-n2nc3ccccc3n2)c1` as the molecule, how does the Potency read?
**A.** The Potency was active: 39.8 µM.

**Q.** For `N/C(=N\OC(=O)c1ccccc1Cl)c1ccc(Cl)cc1`, which Potency is on record?
**A.** The Potency was inconclusive [activator, partial curve, poor fit].

**Q.** With `CC(C)(C)OC(=O)NCCCCCNC(=O)c1[nH]cnc1C(=O)Nc1cccc(Cl)c1` as the molecule, how does the Potency read?
**A.** Its Potency is “inactive”.

**Q.** For `O=C(CCN1C(=O)C2CCCCC2C1=O)Nc1nc2ccc(F)cc2s1` (centres undefined), which Potency is on record?
**A.** Its Potency is inconclusive [activator, full curve, poor fit].

**Q.** Which Potency does the source give for `Cc1ccnc(NC(=O)Nc2cccc(F)c2)c1` here?
**A.** Its Potency is inconclusive [activator, full curve, poor fit].

**Q.** For `O=C(Nc1ccccc1)N(CCN1CCOCC1)Cc1ccccc1F`, which Potency is on record?
**A.** Its Potency is inconclusive [activator, single point].

**Q.** Which Potency does the source give for `Cc1ccc(C(=O)N/C(=C/c2ccco2)C(=O)NCCCn2ccnc2)cc1` here?
**A.** Its Potency is “inactive”.

**Q.** For `O=C(Nc1nc(-c2ccccc2)cs1)NC1CCCCC1`, which Potency is on record?
**A.** Its Potency is inconclusive [activator, full curve].

**Q.** With `CCOc1cc(/C=C2/N=C(c3ccc4c(c3)OCO4)OC2=O)ccc1OC(C)=O` as the molecule, how does the Potency read?
**A.** The Potency was inconclusive [activator, partial curve].

**Q.** With `Clc1ccc(-c2nnc(SCc3nc4ccccc4s3)o2)cc1` as the molecule, how does the Potency read?
**A.** The Potency was inconclusive [activator, full curve, poor fit].

**Q.** For `CC(=O)c1ccc(OCc2cc(C(=O)N3CCOCC3)no2)cc1`, which Potency is on record?
**A.** Its Potency is inconclusive [activator, partial curve, poor fit].

**Q.** Which Potency does the source give for `CC(C)c1ccc(C(C)NC(=S)NC2CCCCC2)cc1` (centres undefined) here?
**A.** The Potency was “inactive”.

**Q.** With `O=C(Nc1ccccn1)c1ccc(Cl)s1` as the molecule, how does the Potency read?
**A.** Its Potency is inconclusive [activator, partial curve, poor fit].

**Q.** With `Cc1ccc2nc(NC(=O)C3CCCN(S(=O)(=O)c4cnc[nH]4)C3)sc2c1` (centres undefined) as the molecule, how does the Potency read?
**A.** The Potency was inconclusive [activator, partial curve, poor fit].

**Q.** For `C/C(=N\NC(=S)NCc1ccccc1)c1cccc(Br)c1`, which Potency is on record?
**A.** Its Potency is inconclusive [activator, single point].

**Q.** With `CCN(CC(=O)Nc1ccc2c(c1)OCCO2)CC(=O)Nc1ccc(C)c(S(=O)(=O)N(C)C)c1` as the molecule, how does the Potency read?
**A.** Its Potency is “inactive”.

**Q.** Which Potency does the source give for `O=C(CSc1nnc(C2CC2)n1C1CC1)c1ccc(F)cc1` here?
**A.** The Potency was inconclusive [activator, single point].

**Q.** With `CCOc1ccc(-c2nnc(-c3ccccc3)o2)cc1` as the molecule, how does the Potency read?
**A.** The Potency was inconclusive [activator, partial curve, poor fit].

**Q.** With `COc1ccc(-c2sc3ccccc3c2C#Cc2cncn2C)cc1` as the molecule, how does the Potency read?
**A.** Its Potency is “inactive”.

**Q.** With `Cc1c(C(=O)NCC2CCCO2)sc2nc(-c3ccccc3)cn12` (centres undefined) as the molecule, how does the Potency read?
**A.** Its Potency is inconclusive [activator, partial curve, poor fit].

**Q.** Which Potency does the source give for `O=C(OCCOc1ccc(Br)cc1)c1ccc(Cl)nc1` here?
**A.** The Potency was inconclusive [activator, partial curve, poor fit].
